From publication PMC12136788
The other results are listed elsewhere or left out.

T1: UNK ZnF1-3 (human, UniProt Q9C0B0 31-174)
T1 sequence: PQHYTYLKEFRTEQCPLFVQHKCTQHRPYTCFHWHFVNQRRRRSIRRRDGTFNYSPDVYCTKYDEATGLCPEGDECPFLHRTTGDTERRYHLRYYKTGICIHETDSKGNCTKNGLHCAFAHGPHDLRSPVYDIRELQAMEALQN

B1: chr16:18872548:18872549:-_ENSMUSG00000022706_ENSMUST00000023391|mus_hu|FALSE|FALSE (ssRNA)
RNA: GGGAGUUCUACAGUCCGACGAUCUUGGUAGUUAGGGAUCGGUGGUGUGUAAUGUGGCCCUUCCUUCUCAAAGGGGAACAGGUUAGGAUCCCGCUUGAUGGCCUCAGCAUGGAGCUUCGGGGAUUCCAGUUGCAGUUCCUCCAGCAACAGAGGAUUGAGCAUCA
B2: chr3:125295114:125295115:-_ENSG00000144909_ENST00000296220|hu_mus|FALSE|FALSE (ssRNA)
RNA: GGGAGUUCUACAGUCCGACGAUCAACAUUAAAAAAAGACAUGGCAUUCUGACUUGGUCUCCGCUGGGAUAUGGGAGAAUUACCACUAGAUGCCAGCGAGAAGCUCCGGGACUUCAGGGGAGGGUUAUUCUUUCCAAUAGCUUCCAACAGAGGAUUGAGCAUCA
B3: chr15:83907949:83907950:-_ENSMUSG00000018865_ENSMUST00000082365|mus_mus|motif|central (ssRNA)
RNA: GGGAGUUCUACAGUCCGACGAUCCUGGUAUUAUAGAUAAAAGUCAAACGUGAGGUCACACUUCCCCAUCUUCUGUUUGUACACGGGAUCAAACUUCUCGUUCAUGGAGACGGUGAAGAUGUCCUUCCACAGCCCAACUCUUCCCAACAGAGGAUUGAGCAUCA
B4: 11913194_11913314_1211_3pUTR_ENSMUSG00000022205_ENSMUST00000022816|mouse|control|control (ssRNA)
RNA: GGGAGUUCUACAGUCCGACGAUCGUUUCACACUUUUUACAAGUCUAAUCUAGUUUAAUAUCUGACUUUAUAACCAUCACCCUAGCACAAAUGUUUACUGAGUGACAGCUCAUCAGACAUCAAAGUCACUAUGUUCUGUAAACUCAACAGAGGAUUGAGCAUCA
B5: chr18:33598288:33598289:-_ENSMUSG00000042834_ENSMUST00000171533|mus_hu|motif|central (ssRNA)
RNA: GGGAGUUCUACAGUCCGACGAUCAGUCAGAAUGAUUAAAAACUGGUUUGAUGACACCUAUUUGUCCACUGUAAAUUCUCGGAAGCAAGGCUCAGAGUCCCAUAGUUUCUUCUUAUACUUGAUGAUUUACACAGAAAAAAAUCCCAACAGAGGAUUGAGCAUCA
B6: 87967838_87967958_4594_CDS_ENSG00000188994_ENST00000369577|human|control|control (ssRNA)
RNA: GGGAGUUCUACAGUCCGACGAUCCAACAGGGGUGGUACAGUUGGAUUUGGCAUCACCGUUGCAUUUACUUGUGAUGCAUCAGAGACACAACCUGUUGAAACAUGAGAAAGCAUUUCGGCACCCUCAAAUGUACUGGGAAUGCCCAACAGAGGAUUGAGCAUCA
B7: chr5:110834802:110834803:-_ENSG00000164211_ENST00000296632|hu_hu|FALSE|FALSE (ssRNA)
RNA: GGGAGUUCUACAGUCCGACGAUCUUACCCAUAUUAACAACAACAAAACAGUAGACACAGGAAUACUAACACAUAAACAACUAACAUUAAACACGGAAAUGGAUUUCGAGAUGUGUGCAUGUACACAAAAAAAUAUAUACAAAGCAACAGAGGAUUGAGCAUCA
B8: chr3:148802587:148802588:-_ENSG00000071794_ENST00000310053|hu_mus|hu_hu_hu_mus_False|1_98 (ssRNA)
RNA: GGGAGUUCUACAGUCCGACGAUCUCCAACAACUUGUCCUCUCAAACUUCCAAAUAAAACCAAAUCUUGCUCUUCAUCACUCGUUAGGAAGUCAUCUGGAGGAAUAAUGUCUUGGAAUUCAAAAUGUGGCAAGAAAGUUGGAUACAACAGAGGAUUGAGCAUCA
B9: chr5:22970553:22970554:+_ENSMUSG00000029004_ENSMUST00000094962|mus_hu|motif|central (ssRNA)
RNA: GGGAGUUCUACAGUCCGACGAUCAGCACUGGAAGUUUCAUCAAAAUUAGGAGUGGUAAAUAUGCCUACUUCAUUUUUGCGGAUAAGGACUGAUGGAGGAGGGGAAGCCGGAGGUGUCGGAGGAGGACGAGCACCAUAAUUAUGCAACAGAGGAUUGAGCAUCA
B10: chr7:65705475:65705476:+_ENSG00000169902_ENST00000304842|hu_hu|hu_hu_hu_mus_True|38_38 (ssRNA)
RNA: GGGAGUUCUACAGUCCGACGAUCUCUAUUCGGUGAUGGCACUCCAUGGCAUGCUGGCCCAGGUAAAACACGGUCACAGAACUAAUCACCAGACACGCCAAUAGUAAGUUCUGCUUCAGCUUCCCAACCAUCUUGAUGUGGUUACAACAGAGGAUUGAGCAUCA
B11: chr11:118268936:118268937:-_ENSMUSG00000025575_ENSMUST00000017620|mus_mus|FALSE|FALSE (ssRNA)
RNA: GGGAGUUCUACAGUCCGACGAUCACCCCUUGCUCCCAGUCUCCGAGCAGUACACCCAUAUGGGCCGGGGCUCAGCUCCCUAUAAUGAAAUUCUCUAGCCAGGAACACAGCUCUUAGUUAAAAAAAGAAAAAAAGCAAACGAGUCAACAGAGGAUUGAGCAUCA
B12: chr7:878492:878493:+_ENSG00000164828_ENST00000456758|hu_hu|motif|central (ssRNA)
RNA: GGGAGUUCUACAGUCCGACGAUCGUCGGCACCCACAGCCUCACCAUCCCCCAGGGUGCAUGCUGUCGUGGCCAGGCGCAAACGGCGGCGGGACAUCCGUGGAGAAUCAAAUACAGGGUCCAAUUUGUGCUCCGUCUCAAAAUCCAACAGAGGAUUGAGCAUCA
B13: chr16:94690476:94690477:+_ENSMUSG00000040785_ENSMUST00000117648|mus_hu|FALSE|FALSE (ssRNA)
RNA: GGGAGUUCUACAGUCCGACGAUCAGAAAUGGAAUGUGACCAGAAUUCAUGGUUCUAUAUUUACCACUGUCUAAAAGUCACAAAACAAUAUCUAAUUUUUUCAUGGUUUCUAAUGCAGUUACAGUUUUGUUCUUAGGUCACAGUCAACAGAGGAUUGAGCAUCA
B14: chr10:92717539:92717540:-_ENSMUSG00000008398_ENSMUST00000008542|mus_hu|motif|central (ssRNA)
RNA: GGGAGUUCUACAGUCCGACGAUCCUGGAACAGCGUGCUUGGCCCUUGCAGCCUGGCAGGACUCAGCGGAGCAACUGGACGGAGGCUGCUCCAGAAAUGUAUGCUGGAGAGCAGUGGACUCGGAGUCAGAAGCAAUCCAUUUGGCAACAGAGGAUUGAGCAUCA
B15: 70209895_70218871_819_CDS_ENSG00000138346_ENST00000358410|human|control|control (ssRNA)
RNA: GGGAGUUCUACAGUCCGACGAUCUAUUUUGCCUUUCAAUCCAAACCUAGGGGACCAAAUGCUUUCUUCAAUAUCCAUUGGUUUCACGACUUCAAUGUUACAUGUUGAAUUAUCCUUACUAUUAUCACUUGGCAGAGAGAGCUGCAACAGAGGAUUGAGCAUCA
B16: chr1:155330963:155330964:-_ENSMUSG00000042699_ENSMUST00000042141|perfect_dup|FALSE|FALSE (ssRNA)
RNA: GGGAGUUCUACAGUCCGACGAUCCCCUUCUACUCGAACCUCACACAUGAAUUUCUGUCUGUUUUUGUUUCCUACUGCUCUAAUUUCAUAGGCUGGAGUCAUCUUCCUUUUGCCACACCAGGCAUACAGAAAAUUUUUAAUGUCCAACAGAGGAUUGAGCAUCA
B17: chr1:163112212:163112213:-_ENSG00000143248_ENST00000313961|hu_hu|hu_hu_hu_mus_False|18_68 (ssRNA)
RNA: GGGAGUUCUACAGUCCGACGAUCUUUUAUUAUCAGUAAGAGUGAGUUACAUACUAGGCAAAGUAUUGAAUACAAAAAUCAGGAAACAAACACUAUUGGUCCAGAAUUUAAAACUUUUGGGAUAAAUUGCUGGCACAGGACUUACAACAGAGGAUUGAGCAUCA
B18: chr14:89307221:89307222:+_ENSG00000165533_ENST00000346301|hu_mus|hu_hu_hu_mus_False|78_88 (ssRNA)
RNA: GGGAGUUCUACAGUCCGACGAUCUCCUGUUUGGUUAGUGCCAGGGAGUUUCAAAGACGUUCCAGGGCGUGGGACCUGAGCAAUAGCAUUUUCAUCCAGGAUCAUUUCAGCAAUUCCUUCCUGGUCCACAUCAAUUUCAUCUAUCAACAGAGGAUUGAGCAUCA
B19: chr2:153581767:153581768:+_ENSMUSG00000027479_ENSMUST00000028981|mus_mus|FALSE|FALSE (ssRNA)
RNA: GGGAGUUCUACAGUCCGACGAUCCACAGGAAUUAUUUUGUCAACGCCCAUCCUCUUGAAGCCUGCUUGUAGUAUUUUGAAGUUCUGGAUAUAUUCAUGUUCUAGCUUAGCUUGGAAUUUCACUUUCUUCAAGGCAAUGGAUCCCAACAGAGGAUUGAGCAUCA
B20: chr15:98780505:98780506:-_ENSMUSG00000072235_ENSMUST00000097014|mus_mus|FALSE|FALSE (ssRNA)
RNA: GGGAGUUCUACAGUCCGACGAUCCUUGUGACAUUUAAUUUAGUAUUCCUCUCCUUCUUCCUCCCCCUCGCCUUCCACAGAAUCCACACCAACCUCCUCAUAAUCCUUCUCUAGGGCAGCCAUGUCCUCACGGGCCUCAGAGAACAACAGAGGAUUGAGCAUCA
B21: chr2:198351390:198351391:-_ENSG00000144381_ENST00000345042|hu_hu|hu_hu_hu_mus_False|68_88 (ssRNA)
RNA: GGGAGUUCUACAGUCCGACGAUCUCAUUCCCACCCUCCACAGAAAGGCUGCUUAACAACUCUCAUGGUGGUGGCAAGCGCUACAGUCCUGAUGCUCACAGAACAGUAGAGAUGCCUCAGUGAUUUAAGUUGAAAGCAGGACACCAACAGAGGAUUGAGCAUCA
B22: chr2:47387610:47387611:-_ENSG00000143933_ENST00000272298|hu_mus|motif|central (ssRNA)
RNA: GGGAGUUCUACAGUCCGACGAUCUCCACGCAGAGUUACAGCUCCACACUUCAACAACAACAUGCUGACAGUUCCGGAAAGCGGCUUUAAAAAAGGCAUAACCCAGAUGUUCCCUCAUUGGACCAACUCCAUCUAAGUUUAGAUCAACAGAGGAUUGAGCAUCA

Target: T1, UNK ZnF1-3
Experiment: nsRBNS (natural sequence RNA bind-n-seq); RBNS binding buffer (assumed for nsRBNS): 25 mM Tris pH 7.5, 150 mM KCl, 3 mM MgCl2, 0.01% Triton X-100, 500 ug/ml BSA, 20 U/ml SUPERase-In, 4 C; UNK is unkempt and MSI1 is Musashi-1; names of the RNAs are library labels; protein concentration not given here; high values mean tight binding

| Binder | binding signal |
| --- | --- |
| B1 | 0.763 enrichment R |
| B2 | 2.07 enrichment R |
| B3 | 0.484 enrichment R |
| B4 | 0.38 enrichment R |
| B5 | 1.08 enrichment R |
| B6 | 1.02 enrichment R |
| B7 | 1.6 enrichment R |
| B8 | 0.891 enrichment R |
| B9 | 2.88 enrichment R |
| B10 | 0.68 enrichment R |
| B11 | 2 enrichment R |
| B12 | 1.1 enrichment R |
| B13 | 0.515 enrichment R |
| B14 | 0.943 enrichment R |
| B15 | 0.977 enrichment R |
| B16 | 0.84 enrichment R |
| B17 | 1.33 enrichment R |
| B18 | 1.04 enrichment R |
| B19 | 0.84 enrichment R |
| B20 | 0.997 enrichment R |
| B21 | 1.04 enrichment R |
| B22 | 1.1 enrichment R |
